From US11542311B2, “Fusion protein, preparation method therefor and application thereof in preparing ophthalmic disease treatment, anti-inflammation and anti-tumor medicament” (JIANGSU RONGTAI BIOTECH CO., LTD., priority 2017, dated 2023)

Legend:
[1] = test system: toe swelling in rat induced by carrageenan; assay: Acute inflammation of toe swelling in rat induced by carrageenan; assay type: in vivo, SD rats
Method: 80 SD rats were randomly divided into 8 groups with 10 mice for each group. […] The drug was administered once by injection every 5 days, and the model group was given an equal volume of physiological saline for 3 days and fed normally. On the third day after the administration, 0.1 mL of 1% carrageenan was injected subcutaneously into the right hind toes of the rats to induce inflammation. The foot volume was measured at 1 h, 3 h, 5 h, and 7 h after inflammation. The swelling degree of the foot was calculated according to the following formula: the swelling degree of the foot (mL)=the volume of the foot after inflammation−the volume before inflammation. The number of milliliters of spilled liquid was recorded (method: the protruding point of the right joint was circled with a ballpoint pen and used as a measurement mark, and the right hind feet of the rats were sequentially placed in the volume measuring device, so that the hind limbs were exposed outside the cylinder, and the depth of the immersion was limited to the overlap of the circle and the liquid level. After the foot entered the liquid, the liquid level was raised, and the volume of the spilled liquid was the volume of the right hind foot of the rat, and the normal volume of the right hind foot of each mouse is sequentially determined).

[2] = test system: IL-1β production by mouse peritoneal macrophages; assay: IL-1β production by mouse peritoneal macrophages (ELISA); assay type: cell-based; settings: 48 h; for PI (%): IL-1β
Method: (1) IL-1β production: mice were intraperitoneally injected with 1 mL of broth medium containing 6% starch, and three days later, the mouse peritoneal macrophages were aseptically taken, washed twice with a 1640 medium, adjusted to the cell concentration of 2×10^6 cells/mL, inoculated into a 24-well culture plate, 1 mL/well, incubated for 3 h in a cell culture incubator, and shaken once every 30 min, so that the cells were allowed to adhere sufficiently. Then, the cells were washed twice with a culture liquid to remove un-adhered cells. […] After administration, the culture was continued for 48 h, the cells were centrifuged at 1000 r/min for 15 min. The supernatant was taken as a sample for testing activity of IL-1β.
(2) Determination of IL-1β content: the detection was performed by using mouse IL-1β enzyme-linked immunosorbent assay kit from R&D company. According to the instructions of the kit, the procedures were as follows: the reaction well for the test samples and standards with different concentration were sealed with sealing tapes, respectively, incubation was performed at 37° C. for 90 min; the plate was washed four times; a biotinylated antibody working solution (100 μL/well) was added, the reaction well was sealed with sealing tapes, and incubation was performed at 37° C. for 60 min; the plate was washed four times; an enzyme conjugate working solution (100 μL/well) was added, the reaction well was sealed with sealing tapes, incubation was performed at 37° C. for 30 min; the plate was washed four times; a developer (100 μL/well) was added, incubation was performed at 37° C. away from light for 10 to 20 min, a stop solution (100 μL/well) was added and mixed, and the OD450 value was measured.

[3] = test system: colon cancer cell HCT-116; assay: MTT assay, proliferation of colon cancer cell HCT-116; assay type: cell-based; settings: 48 h
Method: (§1) The MTT assay was used to detect the inhibitory effect of the integrin blocker fusion protein obtained in Example 1 on the proliferation of various tumor cells, including melanoma cell B16F10, gastric cancer cell MGC-803, lung cancer cell A549, liver cancer cell Hep-G2, breast cancer cell MDA-MB-231, colon cancer cell HCT-116, human glioma U87, and cervical cancer cell Hela.
(§2) The tumor cells were cultured in a 5% CO2 incubator at 37° C. to a density of 90% or more, and collected by trypsinization. The cells were resuspended in the culture liquid and counted under a microscope. The cell concentration was adjusted to 3.0×10^4 cells/mL. The cell suspension was inoculated into a 96-well plate, 100 μL per well, and cultured overnight in a 5% CO2 incubator at 37° C. The fusion proteins I, II, and the positive drug Taxol were diluted with the culture liquid to respective predetermined concentrations. After the cells were fully adhered, each dilution was added to a 96-well plate, 100 μL per well, respectively. The integrin blocker fusion proteins I and II were added as an administration group, Taxol was used as a positive control group, and the culture liquid without any drug was used as a blank control group, and incubated in an 5% CO2 incubator at 37° C. for 48 hours. 20 μL of 5 mg/mL MTT was added to each well of a 96-well plate, and incubation was continued for 4 hours. The medium was aspirated and 100 μL of DMSO per well were added to dissolve. The absorbance was measured at 570 nm with a microplate reader with a reference wavelength of 630 nm, and the proliferation inhibition (PI) was calculated. The formula is as follows: […]
(§3) where Ntest is the OD value of the test group and Ncontrol is the OD value of the blank control group.
(§4) The test was repeated 5 times independently. The results obtained from the test were calculated as mean±SD, and statistical t-test was performed. P<0.05 was considered as significant difference, and P<0.01 was considered as an extremely significant difference.

human glioma U87 = assay: MTT assay, proliferation of human glioma U87; assay type: cell-based; settings: 48 h
Method: as §1, §2, §3, §4

[4] = 32 mg/kg, 1 h after carrageenan
[5] = 32 mg/kg, 3 h after carrageenan
[6] = 32 mg/kg, 5 h after carrageenan
[7] = 32 mg/kg, 7 h after carrageenan
[8] = 128 mg/kg, 1 h after carrageenan
[9] = 128 mg/kg, 3 h after carrageenan
[10] = 128 mg/kg, 5 h after carrageenan
[11] = 128 mg/kg, 7 h after carrageenan

B1: Protein I: Fc fusion protein Fc-IL4DM-HM3: IgG1-Fc, IL-4 and HM-3 joined by flexible (F) linker; SEQ ID NO: 1 (protein)
chain: [gap - human IgG1 Fc]GGGGSGGGGSGGGGSHKCDITLQEIIKTLNSLTEQKTLCTELTVTDIFAASKNTTEKETFCRAATVLRQFYSHHEKDTRCLGATAQQFHRHKQLIRFLKRLDRNLWGLAGLNSCPVKEANQSTLENFLERLKTIMDEKDSKCSSGGGGSGGGGSGGGGSIVRRADRAAVPGGGGRGD
- Swelling degree ([1]; 8 mg/kg, 1 h after carrageenan): 0.27 ± 0.13 mL
- Swelling degree ([1]; 8 mg/kg, 3 h after carrageenan): 0.41 ± 0.15 mL
- Swelling degree ([1]; 8 mg/kg, 5 h after carrageenan): 0.44 ± 0.15 mL
- Swelling degree ([1]; 8 mg/kg, 7 h after carrageenan): 0.35 ± 0.09 mL
- Swelling degree [1, 4]: 0.29 ± 0.07 mL
- Swelling degree [1, 5]: 0.36 ± 0.21 mL
- Swelling degree [1, 6]: 0.37 ± 0.14 mL
- Swelling degree [1, 7]: 0.34 ± 0.11 mL
- Swelling degree [1, 8]: 0.28 ± 0.15 mL
- Swelling degree [1, 9]: 0.32 ± 0.08 mL
- Swelling degree [1, 10]: 0.34 ± 0.21 mL
- Swelling degree [1, 11]: 0.32 ± 0.18 mL
- IL-1β ([2]; 8 μg/mL): 722.85 ± 9.95 pg/mL
- IL-1β ([2]; 32 μg/mL): 495.30 ± 14.58 pg/mL
- IL-1β ([2]; 128 μg/mL): 322.56 ± 13.52 pg/mL
- PI (%) ([2]; 8 μg/mL): 16.04%
- PI (%) ([2]; 32 μg/mL): 42.47%
- PI (%) ([2]; 128 μg/mL): 62.53%
- A570 nm/A630 nm ([3]; 1 μg/mL): 0.6640 ± 0.0246
- PI (%) ([3]; 1 μg/mL): 2.40%
- A570 nm/A630 nm ([3]; 2 μg/mL): 0.6412 ± 0.0181
- PI (%) ([3]; 2 μg/mL): 5.75%
- A570 nm/A630 nm ([3]; 4 μg/mL): 0.6089 ± 0.0131
- PI (%) ([3]; 4 μg/mL): 10.50%
- A570 nm/A630 nm ([3]; 8 μg/mL): 0.5503 ± 0.0319
- PI (%) ([3]; 8 μg/mL): 19.11%
- A570 nm/A630 nm ([3]; 16 μg/mL): 0.5285 ± 0.0222
- PI (%) ([3]; 16 μg/mL): 22.31%
- A570 nm/A630 nm ([3]; 32 μg/mL): 0.4529 ± 0.0190
- PI (%) ([3]; 32 μg/mL): 33.43%
- A570 nm/A630 nm ([3]; 64 μg/mL): 0.3726 ± 0.0190
- PI (%) ([3]; 64 μg/mL): 45.23%
- A570 nm/A630 nm ([3]; 128 μg/mL): 0.2826 ± 0.0151
- PI (%) ([3]; 128 μg/mL): 58.46%
- A570 nm/A630 nm ([3]; 256 μg/mL): 0.2071 ± 0.0271
- PI (%) ([3]; 256 μg/mL): 69.56%
- A570 nm/A630 nm (human glioma U87; 1 μg/mL): 0.7370 ± 0.0190
- PI (%) (human glioma U87; 1 μg/mL): 4.52%
- A570 nm/A630 nm (human glioma U87; 2 μg/mL): 0.6916 ± 0.0275
- PI (%) (human glioma U87; 2 μg/mL): 10.40%
- A570 nm/A630 nm (human glioma U87; 4 μg/mL): 0.6209 ± 0.0314
- PI (%) (human glioma U87; 4 μg/mL): 19.56%
- A570 nm/A630 nm (human glioma U87; 8 μg/mL): 0.5377 ± 0.0212
- PI (%) (human glioma U87; 8 μg/mL): 30.34%
- A570 nm/A630 nm (human glioma U87; 16 μg/mL): 0.4788 ± 0.0366
- PI (%) (human glioma U87; 16 μg/mL): 37.97%
- A570 nm/A630 nm (human glioma U87; 32 μg/mL): 0.3520 ± 0.0223
- PI (%) (human glioma U87; 32 μg/mL): 54.40%
- A570 nm/A630 nm (human glioma U87; 64 μg/mL): 0.2330 ± 0.0112
- PI (%) (human glioma U87; 64 μg/mL): 69.81%
- A570 nm/A630 nm (human glioma U87; 128 μg/mL): 0.1346 ± 0.0283
- PI (%) (human glioma U87; 128 μg/mL): 82.56%
- A570 nm/A630 nm (human glioma U87; 256 μg/mL): 0.0820 ± 0.0230
- PI (%) (human glioma U87; 256 μg/mL): 89.38%

B2: Protein II: Fc fusion protein Fc-IL4DM-HM3: IgG1-Fc, IL-4 and HM-3 joined by rigid (R) linker; SEQ ID NO: 2 (protein)
chain: [gap - human IgG1 Fc]AEAAAKEAAAKEAAAKEAAAKAHKCDITLQEIIKTLNSLTEQKTLCTELTVTDIFAASKNTTEKETFCRAATVLRQFYSHHEKDTRCLGATAQQFHRHKQLIRFLKRLDRNLWGLAGLNSCPVKEANQSTLENFLERLKTIMDEKDSKCSSAEAAAKEAAAKEAAAKEAAAKAIVRRADRAAVPGGGGRGD
- Swelling degree ([1]; 8 mg/kg, 1 h after carrageenan): 0.26 ± 0.13 mL
- Swelling degree ([1]; 8 mg/kg, 3 h after carrageenan): 0.42 ± 0.12 mL
- Swelling degree ([1]; 8 mg/kg, 5 h after carrageenan): 0.42 ± 0.13 mL
- Swelling degree ([1]; 8 mg/kg, 7 h after carrageenan): 0.38 ± 0.08 mL
- Swelling degree [1, 4]: 0.25 ± 0.21 mL
- Swelling degree [1, 5]: 0.30 ± 0.14 mL
- Swelling degree [1, 6]: 0.35 ± 0.09 mL
- Swelling degree [1, 7]: 0.32 ± 0.19 mL
- Swelling degree [1, 8]: 0.27 ± 0.05 mL
- Swelling degree [1, 9]: 0.32 ± 0.15 mL
- Swelling degree [1, 10]: 0.33 ± 0.10 mL
- Swelling degree [1, 11]: 0.31 ± 0.16 mL
- IL-1β ([2]; 8 μg/mL): 755.56 ± 17.82 pg/mL
- IL-1β ([2]; 32 μg/mL): 610.06 ± 19.97 pg/mL
- IL-1β ([2]; 128 μg/mL): 468.96 ± 12.59 pg/mL
- PI (%) ([2]; 8 μg/mL): 12.24%
- PI (%) ([2]; 32 μg/mL): 29.14%
- PI (%) ([2]; 128 μg/mL): 45.53%
- A570 nm/A630 nm ([3]; 1 μg/mL): 0.6610 ± 0.0280
- PI (%) ([3]; 1 μg/mL): 2.84%
- A570 nm/A630 nm ([3]; 2 μg/mL): 0.6440 ± 0.0143
- PI (%) ([3]; 2 μg/mL): 5.34%
- A570 nm/A630 nm ([3]; 4 μg/mL): 0.6112 ± 0.0495
- PI (%) ([3]; 4 μg/mL): 10.16%
- A570 nm/A630 nm ([3]; 8 μg/mL): 0.5615 ± 0.0125
- PI (%) ([3]; 8 μg/mL): 17.46%
- A570 nm/A630 nm ([3]; 16 μg/mL): 0.5416 ± 0.0375
- PI (%) ([3]; 16 μg/mL): 20.39%
- A570 nm/A630 nm ([3]; 32 μg/mL): 0.4889 ± 0.0109
- PI (%) ([3]; 32 μg/mL): 28.13%
- A570 nm/A630 nm ([3]; 64 μg/mL): 0.4000 ± 0.0020
- PI (%) ([3]; 64 μg/mL): 41.20%
- A570 nm/A630 nm ([3]; 128 μg/mL): 0.3126 ± 0.0255
- PI (%) ([3]; 128 μg/mL): 54.05%
- A570 nm/A630 nm ([3]; 256 μg/mL): 0.2324 ± 0.0283
- PI (%) ([3]; 256 μg/mL): 65.84%
